The other results are listed elsewhere or left out.
Legend:
HSkMC = human skeletal muscle cells; test: cytotoxicity call (relative viability < 0.9); settings: 10 µM
HepG2 = test: cytotoxicity call (relative viability < 0.9); settings: 10 µM
S. aureus RN4220 = test: growth inhibition call (relative growth <= 0.2); settings: 50 µM

SMILES	cytotoxicity call (HSkMC)	cytotoxicity call (HepG2)	growth inhibition call (S. aureus RN4220)
C[C@@H]1CCCCO[C@H](CN(C)C(=O)C2CCCCC2)[C@@H](C)CN([C@H](C)CO)C(=O)c2cc(NC(=O)Nc3ccc(F)cc3)ccc2O1	inactive	inactive	inactive
C[C@H](CO)N1C[C@H](C)[C@H](CN(C)Cc2cccc(C(F)(F)F)c2)Oc2ncc(/C=C/c3ccccc3)cc2C1=O	active	active	inactive
C[C@@H]1CN([C@H](C)CO)C(=O)c2cc(NC(=O)c3ccccc3)ccc2O[C@@H](C)CCCCO[C@H]1CN(C)C(=O)NC1CCCCC1	inactive	inactive	inactive
Cc1noc(C)c1S(=O)(=O)N(C)C[C@@H]1Oc2ccc(NC(=O)Nc3ccccc3)cc2CC(=O)N([C@H](C)CO)C[C@H]1C	inactive	inactive	inactive
C[C@@H]1CN([C@H](C)CO)C(=O)c2cc(-c3ccc(C(=O)N(C)C)cc3)cnc2O[C@@H]1CN(C)C(=O)c1ccncc1	inactive	inactive	inactive
Cc1cc(CO)c(O)c(CO)c1	inactive	inactive	inactive
COc1ccc(-c2cnc3c(c2)C(=O)N([C@H](C)CO)C[C@@H](C)[C@H](CN(C)C(=O)C2CCOCC2)O3)cc1	inactive	inactive	inactive
C[C@@H]1CN([C@@H](C)CO)C(=O)c2cc(NC(=O)Nc3ccc4c(c3)OCO4)ccc2O[C@@H](C)CCCCO[C@H]1CN(C)Cc1ccc(C(=O)O)cc1	inactive	inactive	inactive
Nc1nc(=O)c2nc(CNc3ccc(C(=O)N[C@@H](CCC(=O)O)C(=O)O)cc3)cnc2[nH]1	inactive	inactive	inactive
c1ccc2nc(C3=NCCN3)cnc2c1	inactive	inactive	inactive
COCC#Cc1cnc2c(c1)C(=O)N([C@H](C)CO)C[C@H](C)[C@H](CN(C)S(=O)(=O)c1cn(C)cn1)O2	inactive	inactive	inactive
CCNC(=O)N1CCC(N)CC1	inactive	inactive	inactive
Cc1noc(C)c1NC(=O)Nc1ccc2c(c1)C(=O)N([C@@H](C)CO)C[C@@H](C)[C@H](CN(C)Cc1ccccc1)OCCCC[C@H](C)O2	inactive	inactive	inactive
C[C@@H]1CN([C@H](C)CO)C(=O)c2cccc(NC(=O)C3CC3)c2O[C@H]1CN(C)C(=O)Nc1ccc2c(c1)OCO2	inactive	inactive	inactive
C[C@@H]1CCCCO[C@H](CN(C)CC2CCCCC2)[C@H](C)CN([C@@H](C)CO)C(=O)c2cc(NS(=O)(=O)c3cccs3)ccc2O1	inactive	active	inactive
COc1cc(NS(C)(=O)=O)ccc1Nc1c2ccccc2nc2ccccc12	inactive	active	inactive
C[C@@H]1CN([C@H](C)CO)C(=O)Cc2cc(NC(=O)CCN3CCOCC3)ccc2O[C@H]1CN(C)S(C)(=O)=O	inactive	inactive	inactive
C[C@H](CO)N1C[C@H](C)[C@H](CN(C)C(=O)Nc2ccccc2)OCCCC[C@H](C)Oc2ccc(NC(=O)NC3CCCCC3)cc2C1=O	inactive	inactive	inactive
Cc1ccccc1[C@@H](c1ncccc1C)N(C)C(=O)C1CCN(CCOc2ccc(Cl)cc2Cl)CC1	active	inactive	active

SMILES	cytotoxicity call (HSkMC)	cytotoxicity call (HepG2)	growth inhibition call (S. aureus RN4220)
C[C@@H]1CN([C@@H](C)CO)S(=O)(=O)c2ccc(C#Cc3ccc(F)cc3)cc2O[C@@H]1CN(C)CC1CC1	inactive	inactive	inactive
C[C@H]1CN([C@@H](C)CO)C(=O)c2cc(NC(=O)c3ccncc3)ccc2O[C@@H]1CN(C)Cc1ccc2c(c1)OCO2	inactive	inactive	inactive
COc1ccc(S(=O)(=O)Nc2ccc3c(c2)C(=O)N([C@H](C)CO)C[C@H](C)[C@@H](CN(C)S(=O)(=O)c2cn(C)cn2)OCCCC[C@H](C)O3)cc1	inactive	inactive	inactive
C[C@@H]1CCCCO[C@H](CN(C)C(=O)CCC(F)(F)F)[C@@H](C)CN([C@@H](C)CO)C(=O)c2cc(NS(=O)(=O)c3ccc(F)cc3)ccc2O1	inactive	inactive	inactive
C[C@H](CO)N1C[C@H](C)[C@H](CN(C)Cc2ccncc2)OCCCC[C@H](C)Oc2ccc(NC(=O)Nc3ccc(C(F)(F)F)cc3)cc2C1=O	inactive	active	inactive
CC(C)NC(=O)N(C)C[C@H]1OCCCC[C@@H](C)Oc2ccc(NS(C)(=O)=O)cc2C(=O)N([C@H](C)CO)C[C@@H]1C	inactive	inactive	inactive
CCS(=O)(=O)N1C[C@]2(CN(C2)C(=O)Nc2c(noc2C)C)c2c([nH]c3cc(ccc23)OC)[C@@H]1CO	inactive	inactive	inactive
C[C@@H]1CN([C@H](C)CO)C(=O)c2cc(C#CCC3CCCC3)cnc2O[C@H]1CN(C)C(=O)c1cnccn1	inactive	inactive	inactive
Cc1ccc(N(CC2=NCCN2)c2cccc(O)c2)cc1.Cl	inactive	inactive	inactive
C[C@@H]1CN([C@@H](C)CO)C(=O)c2ccccc2-c2ccccc2CO[C@@H]1CN(C)Cc1ccc(C(F)(F)F)cc1	inactive	inactive	inactive
C[C@H]1CN([C@@H](C)CO)C(=O)c2cc(NS(=O)(=O)c3cccs3)ccc2O[C@H]1CN(C)Cc1ccc(-c2ccccc2)cc1	inactive	inactive	inactive
CC[C@@H]1OC[C@@H]2CN(C(=O)CN(C)C)CC[C@H]21	inactive	inactive	inactive
CC(C)NC(=O)N(C)C[C@@H]1OCc2cn(nn2)CCCC(=O)N([C@@H](C)CO)C[C@@H]1C	inactive	inactive	inactive
C[C@@H]1CN([C@H](C)CO)C(=O)c2cc(NS(=O)(=O)c3cccs3)ccc2O[C@@H](C)CCCCO[C@@H]1CN(C)S(C)(=O)=O	inactive	inactive	inactive
C[C@H]1CN([C@@H](C)CO)C(=O)Cc2cc(NC(=O)Nc3ccc(C(F)(F)F)cc3)ccc2O[C@@H]1CN(C)C(=O)Nc1ccc2c(c1)OCO2	inactive	inactive	inactive
COc1ccc(NC(=O)N(C)C[C@H]2Oc3ccc(NC(=O)CCCN(C)C)cc3C(=O)N([C@@H](C)CO)C[C@@H]2C)cc1	inactive	inactive	inactive
CC1(C)NCCNC1=O	inactive	inactive	inactive
CCCC#Cc1cnc2c(c1)C(=O)N([C@@H](C)CO)C[C@@H](C)[C@@H](CN(C)S(=O)(=O)c1cccc(OC)c1)O2	inactive	inactive	inactive
C[C@H]1CCCCO[C@H](CN(C)S(=O)(=O)c2ccc(F)cc2)[C@@H](C)CN([C@@H](C)CO)C(=O)c2cc(NC(=O)c3ccccc3)ccc2O1	inactive	active	inactive

SMILES	cytotoxicity call (HSkMC)	cytotoxicity call (HepG2)	growth inhibition call (S. aureus RN4220)
C[C@@H]1CN([C@@H](C)CO)C(=O)c2cc(NC(=O)Nc3ccc(F)cc3)ccc2O[C@@H](C)CCCCO[C@H]1CN(C)C(=O)Cc1ccccc1	inactive	inactive	inactive
Cc1ccc(S(=O)(=O)N(C)C[C@@H]2Oc3c(NS(=O)(=O)c4ccccc4)cccc3C(=O)N([C@H](C)CO)C[C@@H]2C)cc1	inactive	inactive	inactive
O=C(NCCCN1CCOCC1)[C@@H]1[C@@H](CO)[C@@H]2Cn3c(ccc(C4=CCCCC4)c3=O)[C@H]1N2	inactive	inactive	inactive
Cc1noc(C)c1NC(=O)N(C)C[C@H]1Oc2ccc(NS(C)(=O)=O)cc2C(=O)N([C@@H](C)CO)C[C@H]1C	inactive	inactive	inactive
C[C@@H]1CCCCO[C@H](CN(C)S(=O)(=O)c2cccs2)[C@H](C)CN([C@H](C)CO)C(=O)c2cc(NC(=O)CCC(F)(F)F)ccc2O1	inactive	inactive	inactive
C[C@@H]1CN([C@H](C)CO)C(=O)c2cccc(NC(=O)NC3CCCCC3)c2O[C@H]1CN(C)S(C)(=O)=O	inactive	inactive	inactive
COCCN1CCNCC1	inactive	inactive	inactive
O=C(O)COc1nn(Cc2ccccc2)c2ccccc12	inactive	inactive	inactive
O=C(C[C@H]1CC[C@@H]2[C@H](COC[C@H](O)CN2C(=O)c2ccncc2)O1)NCc1ccc(-c2ccccc2)cc1	inactive	inactive	inactive
C[C@@H]1CCn2cc(nn2)COC[C@@H](Cc2ccccc2)NC(=O)[C@H](C)CCn2cc(nn2)COC[C@@H](Cc2ccccc2)NC1=O	inactive	inactive	inactive
CN1CCN(C(=O)C[C@@H]2CC[C@@H]3[C@H](COC[C@H](O)CN3C(=O)C3CC3)O2)CC1	inactive	inactive	inactive
C[C@@H]1CN([C@@H](C)CO)C(=O)c2cc(NS(=O)(=O)c3ccc(Cl)cc3)ccc2O[C@@H](C)CCCCO[C@H]1CN(C)C(=O)c1ccncc1	inactive	inactive	inactive
C[C@@H]1CN([C@@H](C)CO)C(=O)c2cc(NC(=O)Nc3ccccc3)ccc2O[C@@H](C)CCCCO[C@@H]1CN(C)Cc1ccc(C(=O)O)cc1	inactive	inactive	inactive
O=C(O)C1(c2cccs2)CCCC1	inactive	inactive	inactive
C[C@H](CO)N1C[C@H](C)[C@@H](CN(C)S(=O)(=O)c2ccc(Cl)cc2)Oc2ccc(NC(=O)Cn3cnnn3)cc2CC1=O	inactive	inactive	inactive
O=C1CN(S(=O)(=O)Cc2ccccc2)C[C@H]2[C@@H](c3ccc(C#Cc4cccc(F)c4)cc3)[C@@H](CO)N12	inactive	inactive	inactive
C[C@@H]1CCCCO[C@H](CN(C)S(C)(=O)=O)[C@@H](C)CN([C@@H](C)CO)C(=O)c2cc(NC(=O)Nc3cccc4ccccc34)ccc2O1	inactive	inactive	inactive
COc1ccc(S(=O)(=O)N(C)C[C@@H]2Oc3cc(-c4ccccc4OC)ccc3S(=O)(=O)N([C@@H](C)CO)C[C@H]2C)cc1	inactive	inactive	inactive

From the antibiotic and cytotoxicity screens of Wong et al. (2023)
